Source: publication PMC9897667, “Identification of procathepsin L (pCTS-L)–neutralizing monoclonal antibodies to treat potentially lethal sepsis” (Science Advances, 2023)

Target: T1, recombinant human procathepsin L (pCTS-L) (human, UniProt P07711 18-333)
T1 construct: procathepsin L (pCTS-L), human, recombinant; A HEK293-made pCTS-L is named only for stimulating PBMCs; also called proCTS-L; human pCTS-L; source: recombinant, highly purified
T1 sequence (looked up): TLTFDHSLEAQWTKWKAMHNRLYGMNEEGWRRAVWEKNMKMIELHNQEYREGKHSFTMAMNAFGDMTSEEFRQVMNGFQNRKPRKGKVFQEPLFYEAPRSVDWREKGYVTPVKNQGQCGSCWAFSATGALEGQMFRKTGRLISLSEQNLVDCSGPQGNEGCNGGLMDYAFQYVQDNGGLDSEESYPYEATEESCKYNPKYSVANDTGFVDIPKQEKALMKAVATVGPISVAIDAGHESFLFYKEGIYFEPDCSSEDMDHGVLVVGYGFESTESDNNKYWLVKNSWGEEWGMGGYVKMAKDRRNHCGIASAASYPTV
Assay: SPR; OpenSPR, series of Fig. 10A; pCTS-L immobilised on NTA sensor chip and preincubated with the anti-pCTS-L mAb20 before TLR4 or RAGE was applied at various concentrations
Conditions: both partners purified

B1: extracellular domain of human RAGE ([…]) (receptor)
chain: not shown
notes: signal peptide in the construct; receptor for advanced glycation end products, human, extracellular domain, […]; also called receptor for advanced glycation end products; recombinant RAGE; source: bought: Sino Biological Inc
KD with mAb20 preincubated on pCTS-L: 30.4 ± 9.8 nM
